In experiment [1] the target is T1, Swi1-5FLAG (wild type, expressed from the swi1 promoter) (S. pombe) (UniProt Q9UUM2).
T1 sequence: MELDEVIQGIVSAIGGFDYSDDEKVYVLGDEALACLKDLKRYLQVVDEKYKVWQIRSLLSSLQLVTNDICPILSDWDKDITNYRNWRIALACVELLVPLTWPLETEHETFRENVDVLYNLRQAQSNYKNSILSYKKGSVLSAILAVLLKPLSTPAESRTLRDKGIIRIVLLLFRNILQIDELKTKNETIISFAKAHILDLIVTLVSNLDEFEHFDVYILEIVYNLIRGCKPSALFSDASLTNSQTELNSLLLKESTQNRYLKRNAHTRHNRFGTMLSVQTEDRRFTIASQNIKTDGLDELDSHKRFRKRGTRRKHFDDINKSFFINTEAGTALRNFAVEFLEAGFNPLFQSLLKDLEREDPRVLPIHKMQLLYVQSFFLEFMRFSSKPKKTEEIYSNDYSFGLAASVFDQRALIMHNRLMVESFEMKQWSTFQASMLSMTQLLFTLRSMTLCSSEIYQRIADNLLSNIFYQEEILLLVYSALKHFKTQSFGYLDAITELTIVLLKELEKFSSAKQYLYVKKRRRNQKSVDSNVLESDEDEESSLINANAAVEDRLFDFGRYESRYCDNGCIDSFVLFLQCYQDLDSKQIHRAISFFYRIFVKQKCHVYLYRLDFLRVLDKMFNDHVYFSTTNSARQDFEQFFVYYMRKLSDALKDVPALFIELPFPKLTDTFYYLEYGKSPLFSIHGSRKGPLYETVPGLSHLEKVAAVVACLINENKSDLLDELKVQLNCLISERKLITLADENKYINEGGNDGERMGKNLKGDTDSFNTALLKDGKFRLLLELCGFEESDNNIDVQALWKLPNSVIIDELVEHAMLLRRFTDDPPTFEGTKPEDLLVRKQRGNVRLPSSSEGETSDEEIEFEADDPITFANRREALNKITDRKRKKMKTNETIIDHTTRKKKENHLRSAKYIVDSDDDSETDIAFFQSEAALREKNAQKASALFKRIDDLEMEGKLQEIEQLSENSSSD
The experiment can be described thus: co-IP; Swi1-FLAG immunoprecipitated from S. pombe protein extracts, blots probed with anti-FLAG M2 and anti-Myc 9E10.

Experiment [2] concerns the target T2, Swi1ΔDDT (swi1 ΔDDT-5FLAG, deletion of amino acids 323–378) (S. pombe) (UniProt Q9UUM2).
T2 sequence: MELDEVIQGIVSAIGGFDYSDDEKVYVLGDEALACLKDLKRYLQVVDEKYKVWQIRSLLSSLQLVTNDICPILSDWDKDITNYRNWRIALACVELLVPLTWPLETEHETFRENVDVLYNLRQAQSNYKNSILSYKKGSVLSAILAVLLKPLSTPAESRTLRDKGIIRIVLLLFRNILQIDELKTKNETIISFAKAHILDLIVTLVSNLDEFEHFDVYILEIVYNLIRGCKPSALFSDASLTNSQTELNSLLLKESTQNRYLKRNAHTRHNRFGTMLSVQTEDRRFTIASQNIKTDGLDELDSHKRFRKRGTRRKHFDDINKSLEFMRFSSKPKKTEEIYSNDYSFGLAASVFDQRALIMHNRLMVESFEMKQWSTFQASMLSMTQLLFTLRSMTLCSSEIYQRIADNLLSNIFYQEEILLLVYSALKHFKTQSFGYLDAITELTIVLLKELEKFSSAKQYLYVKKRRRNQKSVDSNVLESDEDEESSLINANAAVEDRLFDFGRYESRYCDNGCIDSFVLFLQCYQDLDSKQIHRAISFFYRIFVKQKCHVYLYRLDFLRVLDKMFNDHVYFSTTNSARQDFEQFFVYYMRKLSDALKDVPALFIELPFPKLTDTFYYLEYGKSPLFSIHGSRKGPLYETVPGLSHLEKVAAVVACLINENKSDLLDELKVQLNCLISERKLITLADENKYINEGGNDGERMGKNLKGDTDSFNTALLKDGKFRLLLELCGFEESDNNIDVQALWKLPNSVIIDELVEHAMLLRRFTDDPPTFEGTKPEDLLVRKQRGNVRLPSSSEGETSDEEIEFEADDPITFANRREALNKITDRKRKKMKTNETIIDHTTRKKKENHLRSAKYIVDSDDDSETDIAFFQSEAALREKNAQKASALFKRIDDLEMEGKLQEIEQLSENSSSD
Described as above.

Experiment [3] concerns the target T3, Swi1-h1 (swi1 L333A, F336A, F340A-5FLAG) (S. pombe) (UniProt Q9UUM2).
T3 sequence: T1 sequence with L333A, F336A, F340A
Described as above.

The target in experiment [4] is T4, Swi1-h2 (swi1 F349A, L352A, L356A-5FLAG) (S. pombe) (UniProt Q9UUM2).
T4 sequence: T1 sequence with F349A, L352A, L356A
The experiment is described as above.

For experiment [5], the target named is T5, Swi1 (500–800)-5FLAG (S. pombe) (UniProt Q9UUM2).
T5 sequence: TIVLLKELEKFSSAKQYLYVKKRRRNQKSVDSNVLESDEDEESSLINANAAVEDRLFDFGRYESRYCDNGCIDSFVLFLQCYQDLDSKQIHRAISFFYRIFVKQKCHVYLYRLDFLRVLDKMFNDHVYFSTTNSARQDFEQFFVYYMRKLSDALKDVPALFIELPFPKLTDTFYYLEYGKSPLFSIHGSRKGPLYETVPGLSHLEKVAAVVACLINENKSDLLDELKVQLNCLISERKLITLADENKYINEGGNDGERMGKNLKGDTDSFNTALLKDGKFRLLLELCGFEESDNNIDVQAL
The experiment can be described thus: pull-down; anti-FLAG M2 agarose beads bound to Swi1-FLAG (purified from swi3Δ cells) mixed with His6-Swi3 in lysis buffer A (50 mM Tris-HCl pH 8.0, 150 mM NaCl, 0.1% NP-40, 10% glycerol), 1 hour at 4°C, washed three times, Western blotting with anti-FLAG or His6 antibody; both purified. (In general: Immunoblotting shows a protein as a band on a membrane.)

Experiment [6] addresses T6, Swi1 (1–300)-5FLAG (S. pombe) (UniProt Q9UUM2).
T6 sequence: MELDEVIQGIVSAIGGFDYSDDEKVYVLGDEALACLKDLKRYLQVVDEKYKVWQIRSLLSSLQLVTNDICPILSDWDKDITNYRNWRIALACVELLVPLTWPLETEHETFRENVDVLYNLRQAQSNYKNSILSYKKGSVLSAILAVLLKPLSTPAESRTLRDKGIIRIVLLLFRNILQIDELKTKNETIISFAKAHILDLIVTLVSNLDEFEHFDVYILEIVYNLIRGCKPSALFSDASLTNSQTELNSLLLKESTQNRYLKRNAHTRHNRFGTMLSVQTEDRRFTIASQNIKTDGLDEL
Described as above.

Results on two molecules are retold here after PMC3431386, “Swi1 Associates with Chromatin through the DDT Domain and Recruits Swi3 to Preserve Genomic Integrity” (PLoS ONE, 2012).

Residue numbers refer to the chain shown, from its start. These are yes or no findings as the source states them, for the method shown. For part of these data: Binding seen in cells or lysates may run through a third protein. Some results given as binding are weak or reduced against the parent protein; the word gives no strength. Tags and fused reporters may be left off the sequences shown.

B1: Swi3-13Myc (protein, UniProt O14350 1-181)
chain: MSTAASDSGVEKLVEENKREEVKKNEEEKEFDLGLEENPDSVKKPRKRLAKFDEERLISENGIPKLRKMMRKVKLKGKGHEAKDLKQLLGMYHIWTHELYPRATFDDSISYLKTLGKHRSVKVRRRGWINEIAVENGSDSNASLFTGPSSNSLVNLTSGDPYVQDTADDAFVAQDNDTQLE
As for B1, the binding result in experiment [1] is given as “binds”; in experiment [2] it was “no binding”; in experiment [3], “no binding”; in experiment [4], “binds”.

B2: hexahistidine-tagged Swi3 (His6-Swi3) (natural protein, S. pombe, UniProt O14350 1-181, looked up)
chain: B1 chain
notes: Swi3, S. pombe; swi3 open reading frame in the NdeI/XhoI site of pET28a; also called recombinant Swi3; pET28a-Swi3; source: E. coli BL21(DE3), purified (Ni-NTA)
In the case of B2, the binding result in experiment [5] and in experiment [6] was “no binding” each time.
